Results reported in PubChem BioAssay AID651582 (Sanford-Burnham Center for Chemical Genomics, 2012).
This is one part of the list. Further columns of the screen follow, without active or inactive calls. The list favours compounds with an active or inconclusive main result.

Test: TAG lipid buildup reduction in H9c2 cells – cell-based, uHTS, fluorescence, primary screen (AID 651582)
Conditions: Nile Red lipid (TAG) fluorescence, measured here:, at 12.5 µM, cells loaded with 200 µM oleic acid

SMILES	DAPI nuclei signal change (viability), lower = more cytotoxic [%]
CC(Sc1nc(NCc2ccccc2)nc(N2CCOCC2)n1)C(=O)Nc1ccccc1 (stereo unspecified)	-0.115
CCOC(=O)c1cc(-c2ccccc2)sc1NC(=O)C(C)N1C(=O)NC(C)(c2ccc(Cl)cc2)C1=O (stereo unspecified)	-5.7
CCN(CC)S(=O)(=O)c1ccc2c(c1)C(=NO)c1cc(S(=O)(=O)N(CC)CC)ccc1-2	-9.51
COc1ccc(Nc2nc3cc(-c4sccc4C)sc3c(=O)n2C)cc1OC	-32.8
C=CCOc1c(OC)cc(/C=N/Nc2cccc(C(=O)O)c2)c(Br)c1Br	-36.8
CCOc1ccccc1NC(=O)CCC(=O)Nc1ccccc1OCC	-11.8
Cc1ccc(NC(=O)c2cc([N+](=O)[O-])ccc2NCc2cccnc2)cc1Cl	-3.32
CCCC(=O)Nc1nc2nc(-c3ccccc3)cc(-c3ccccc3)n2n1	-4.22
N#CC(C#N)=c1ccc2c(c1)N1C(c3ccccc3)=CC(c3ccccc3)C3CCCCC31N=2 (stereo unspecified)	-5.31
COC(=O)C1=C(C)N(Cc2ccccc2)C(=NCc2ccccc2)N[C@H]1c1ccccc1	-44.4
COc1ccc(S(=O)(=O)N2c3cc(Cl)ccc3Oc3nc4ccccc4nc32)cc1	-25.2
COc1ccccc1NC(=O)Nc1nc(C(N)Cc2ccc(C(F)(F)F)cc2)cs1 (stereo unspecified)	-45.6
COc1cccc(/C=N/NC(=O)CNC(=O)COc2ccccc2)c1O	-14.8
CN1CCN(c2ccccc2NC(=O)c2ccc([N+](=O)[O-])o2)CC1	-45.6
Cc1c(/C=N/Nc2nc3ccccc3[nH]2)c2ccccc2n1C	-23.3
CCCc1cc(N2CCCC2)n2nc(C)c(-c3ccccc3)c2n1	12.3
Cc1cc(C(=O)CCl)c(C)n1CCc1ccc(Cl)cc1	-40.8
CN1CCN(C(=O)c2ccc(Cc3cn(C)c4ccccc34)nc2)CC1	-41.7
O=C(CSc1cccc2cccnc12)Nc1cc(C(=O)O)cc(C(=O)O)c1	-11.9
Cc1ccc(-c2nn3c(C)nnc3c3ccccc23)cc1S(=O)(=O)NC(C)c1ccccc1 (stereo unspecified)	-2.69
COC(=O)[C@]1(CC(C)C)N[C@H](c2ccc(-c3ccc(OC)cc3)cc2)[C@@H]2C(=O)N(C)C(=O)[C@@H]21	42.4
N#CCCN1CCCc2cc(N=Nc3ccc(C(F)(F)F)cc3)ccc21	-7.6
C[C@@]12C(=O)Nc3cc(F)c(F)cc3C(=O)N1[C@H]1c3cc(Cl)ccc3OC[C@@H]1[C@@H]2c1ccccc1	-29.5

SMILES	DAPI nuclei signal change (viability), lower = more cytotoxic [%]
O=[N+]([O-])c1ccc(-c2cn3nc(-c4ccccc4)c(-c4ccccc4)nc3n2)cc1	-41.5
COc1ccc(N=C2C(=Nc3ccc(OC)cc3)N(c3ccc(OC)cc3)C(=S)N2C(=O)c2ccc(OC)cc2)cc1	-1.93
Cc1cc(N/N=C/c2cccc(Cl)c2)nc(-n2nc(C)cc2C)n1	-25.1
COc1ccc(-c2cc(C(F)F)n3ncc(C(=O)Nc4cccc(S(=O)(=O)N5CCOCC5)c4)c3n2)cc1	9.91
CC1(c2ccccc2)O[C@@H]2C[C@H]3[C@@H]4CCC5=CC(=O)C=C[C@]5(C)[C@@]4(F)[C@@H](O)C[C@]3(C)[C@]2(C(=O)CO)O1 (stereo partly specified)	0.411
COc1cc(C#Cc2c(-c3cncn3C)n(C)c3ccc(-c4ccc(OC)nc4)cc23)cc(OC)c1	148
COc1ccc(-c2nc(-c3ccccc3)c(-c3cc([N+](=O)[O-])ccc3C)[nH]2)cc1OC	-1.19
COc1cc(Cn2c(-c3nonc3N)nc3ccccc32)ccc1C	-16.8
CCc1nnc(NS(=O)(=O)c2ccc(NC(=O)c3ccc([N+](=O)[O-])s3)cc2)s1	-33.6
CCCCn1c(=N)n(CC(=O)c2ccc(Br)s2)c2ccccc21	-25.8
O=S(=O)(c1ccc(OCC(O)CNC23CC4CC(CC(C4)C2)C3)c(Cl)c1)N1CCOCC1 (stereo unspecified)	-17.3
Cc1ccccc1NC(=O)c1nc(S(C)(=O)=O)ncc1Cl	-48.2
CCOC(=O)/C(=C\c1cccnc1)C(=O)c1cc(C(C)=O)c(Nc2ccccc2)s1	-48.3
Oc1cccc2cc(Nc3ccccc3)cnc12	-22.2
CSC1=C(C#N)C(c2ccccc2C)C(C#N)=C(N)N1 (stereo unspecified)	-24.1
O=C(CCl)Nc1cccc(S(=O)(=O)NC2=NCCCCC2)c1	-27.7
O=C(Nc1cccc(NS(=O)(=O)c2ccc(S(=O)(=O)NC3CC3)cc2)c1)c1ccccn1	4.06
Cc1cc(NC(=O)CC2CCCC2)n(-c2nc3ccccc3[nH]2)n1	-14.9
COc1ccc(-c2oc(=O)c3cc(OC)c(OC)cc3c2/C=C/c2ccc([N+](=O)[O-])cc2)cc1	3.16
CCOc1ccccc1NC(=O)C(CC(C)C)NC(=O)C1CCCCC1 (stereo unspecified)	0.414
Cc1ccc(Cn2cc(/C=N/NC(=O)Cc3nnc(NC(=O)c4ccc(C)cc4)s3)c3ccccc32)cc1	-38.5
O=C(CCC1CCCCC1)NCCN1C2=NC[C@@H](Cc3ccccc3)N2C[C@H]1Cc1ccc(O)cc1	-32.3
Fc1cccc(Nc2nc(-c3ccncc3)nc3ccccc23)c1	-23.6

SMILES	DAPI nuclei signal change (viability), lower = more cytotoxic [%]
C(=N\Nc1nc2ccccc2[nH]1)/C1CCCCC1	-19
COC(=O)c1c(NC(=O)c2ccc([N+](=O)[O-])o2)sc2c1CCN(C(C)C)C2	-43.5
CCC(C)NCCOCCOc1ccc(Cl)c2ccccc12 (stereo unspecified)	-8.59
Nc1cc2c(cc1Br)[nH]c(=O)c1ccccc12	-48.9
COc1ccccc1N1CCN(CC(=O)Nc2cc(C)nn2-c2nc(C)cc(C)n2)CC1	-18.9
COc1cc([C@@H]2c3cc4c(cc3[C@H](O)[C@H]3COC(=O)[C@H]23)OCO4)cc(OC)c1OC	-28.6
O=C(Nc1ccc(Cl)cc1)c1csc([C@@H]2C[C@H](O)[C@@H](CO)O2)n1	-40.3
C[C@H]1CCCCO[C@H](CN(C)CC2CCCCC2)[C@@H](C)CN([C@@H](C)CO)C(=O)c2cc(NS(=O)(=O)c3ccccc3)ccc2O1	-29.8
Cc1cc(N2CCOCC2)n2nc(C)c(-c3ccccc3)c2n1	-8.11
COc1ccc(NC(=O)c2cc3c(-c4ccc(OC)c(OC)c4)nn(C)c3s2)cc1OC	-13.3
O=C(Nc1ccc2ccccc2c1)[C@@H]1C[C@H]1[C@@H](NP(=O)(c1ccccc1)c1ccccc1)c1ccccc1	-2.78
CC(C)COc1ccc(C(=O)Nc2scc(-c3ccc(Cl)cc3Cl)c2C(N)=O)cc1	2.94
C#CCOCCOCCOCCNc1nc(N2CCN(C(=O)[C@H](CCCCN)n3cc([C@@H](N)CO)nn3)CC2)nc(N2CCN(C(=O)[C@H](CCCCN)n3cc([C@@H](N)CC(C)C)nn3)CC2)n1	-34.6
CC(C)NC(=O)N(C)C[C@H]1Oc2cc(C#Cc3ccc(F)cc3)ccc2S(=O)(=O)N([C@H](C)CO)C[C@H]1C	-3.04
COc1cc(-c2nnc3n2N=C(c2ccccc2)CS3)cc(OC)c1OC	-24.6
O=C(Nc1ccc(/C=C/c2nc3ccccc3o2)cc1)c1c(F)cccc1F	30.5
Cc1cccc(Nc2nc(NCc3ccco3)nc(N3CCOCC3)n2)c1	-19.8
COc1cc(CNC(=O)Nc2nc(C(N)Cc3ccc(C(F)(F)F)cc3)cs2)cc(OC)c1OC (stereo unspecified)	-22.8
Cc1cc(C)c2nc(-c3ccncc3)cc(C(=O)N3CCN(Cc4ccccc4Cl)CC3)c2c1	0.00848
CCOC(=O)c1c(SCCN2CCCC2)n(-c2ccccc2)c(=S)n(-c2ccccc2)c1=O	-44.3
CCN(CC)CCNc1ccc(C)c2sc3ccc(O)cc3c(=O)c12	-43.3
COc1cc(OC)cc(C(=O)N2CC(=O)Nc3ccccc32)c1	-28.9
Cn1c(N)c(C(=O)COC(=O)c2ccc([N+](=O)[O-])o2)c(=O)n(C)c1=O	-47.2

SMILES	DAPI nuclei signal change (viability), lower = more cytotoxic [%]
O=c1nc(N/N=C/C=C/c2ccccc2)cn[nH]1	-20
COc1cc(C(CCN2CCCCC2)c2c(OC)cc(OC)c3c(-c4ccccc4)cc(=O)oc23)cc(OC)c1OC (stereo unspecified)	-29.6
CC(C)C(C)(C#N)NC(=O)CSc1nc2scc(-c3ccco3)c2c(=O)n1-c1ccccc1 (stereo unspecified)	-4.39
COc1ccc(/C=N/NC(=O)COc2ccccc2-c2ccccc2)cc1	-20.6
CCN(C(=O)COC(=O)c1cc(-c2ccccc2)nc2c1c(C)nn2-c1ccc(C)cc1)C1CCS(=O)(=O)C1 (stereo unspecified)	33.5
O=C(c1ccccc1)c1ccc2nc(-c3ccc(NC(=O)c4ccccc4F)cc3)[nH]c2c1	-18.4
COc1ccc2nc(NN=C(C)c3ccccn3)cc(C)c2c1	-38.6
O=C1C=CC(O)C2(CO)OC12 (stereo unspecified)	-42.6
CN(C)CCCn1c(=O)n(CCc2ccccc2)c(=O)c2c3c(sc21)CCCCC3	-10.7
COc1ccc(NC(=O)O[C@@H](C)[C@@H]2CN3CCc4c([nH]c5ccc(-c6ccc(OC)cc6)cc45)[C@@H]3C[C@@H]2N(C)C(=O)Nc2ccc(OC)cc2)cc1	-6.95
Cc1ccc(F)c(Oc2cc(NN3CCCCC3)c([N+](=O)[O-])cc2[N+](=O)[O-])c1	-28.1
CC(C)C[C@@H](CN1CCCC1CN1C(=S)NC[C@@H]1Cc1ccc(O)cc1)N1C[C@H](Cc2ccccc2)N(CC2CCCCC2)C1=S (stereo partly specified)	-49.6
CCc1cccc2c1Sc1ccccc1CC2N1CCNCC1 (stereo unspecified)	-29.4
C=CC[C@@H](CC(=O)N(CCO)Cc1ccccc1)C(=O)N[C@H](COC(=O)[C@@H](CC=C)CC(=O)OC(C)(C)C)Cc1ccccc1	-6.01
CS(=O)(=O)Oc1ccc2c(c1)O/C(=C\C=C\c1ccccc1)C2=O	-45.5
Nc1ccccc1Nc1cccc(C(F)(F)F)c1	-28
CCOC(=O)[C@H]1[C@H]2COc3ccc(C)cc3[C@@H]2N2C(=O)c3cc(Br)ccc3NC(=O)[C@@]12C	-11.9
CC(=NNc1nc2ccccc2s1)c1ncccn1	-43.2
CN(C)CCCN1c2ccccc2Sc2ccc3ccccc3c21	-10.2
O=c1cc(-c2ccccc2)[nH]c2ccccc12	-20.2
O=C(Nc1cccc(Cl)c1)c1nc[nH]c1C(=O)NCCCNC(=O)c1[nH]cnc1C(=O)Nc1cccc(Cl)c1	4.76
O=C(CSc1nc(-c2ccco2)cc(C(F)(F)F)n1)Nc1ccc2c(c1)CCC2	-13
